According to the antibiotic and cytotoxicity screens of Wong et al. (2023):
Some of the results follow.

What was measured:
[1] = system: HSkMC (human skeletal muscle cells); assay: cytotoxicity call (relative viability < 0.9); details: 10 µM
[2] = system: HepG2; assay: cytotoxicity call (relative viability < 0.9); details: 10 µM
[3] = system: S. aureus RN4220; assay: growth inhibition call (relative growth <= 0.2); details: 50 µM

| SMILES | cytotoxicity call [1] | cytotoxicity call [2] | growth inhibition call [3] |
| --- | --- | --- | --- |
| O=C(C[C@H]1C[C@@H]2c3cc(NC(=O)C4CCOCC4)ccc3O[C@@H]2[C@H](CO)O1)NCc1cc(F)ccc1F | inactive | inactive | inactive |
| COc1ccc(NC(=O)Nc2ccc3c(c2)CC(=O)N([C@H](C)CO)C[C@H](C)[C@H](CN(C)S(C)(=O)=O)O3)cc1 | inactive | inactive | inactive |
| C=C[C@H]1CCC=C2C(=O)CCC[C@@H]21 | inactive | inactive | inactive |
| CN(C)c1ccc2c(=O)[nH][nH]c(=O)c2c1 | inactive | inactive | inactive |
| C[C@@H]1CN([C@H](C)CN(C)C)C(=O)c2cc(NC(=O)Cc3cn(C)c4ccccc34)ccc2O[C@H]1CN(C)S(=O)(=O)c1ccc(Cl)cc1 | active | active | inactive |
| N#CC(c1ccc(Cl)cc1)c1c(Cl)cc(-n2ncc(=O)[nH]c2=O)cc1Cl (configuration not stated) | inactive | inactive | active |
| COc1ccc(CN(C)C[C@@H]2OCCCC[C@@H](C)Oc3ccc(NC(=O)c4ccncc4)cc3C(=O)N([C@H](C)CO)C[C@@H]2C)cc1 | inactive | inactive | inactive |
| COc1ccc(NC(=O)N(C)C[C@@H]2Oc3ccc(NS(C)(=O)=O)cc3C(=O)N([C@@H](C)CO)C[C@H]2C)cc1 | inactive | inactive | inactive |
| COc1ccc(S(=O)(=O)N(C)C[C@@H]2Oc3c(NC(=O)Nc4cccc5ccccc45)cccc3C(=O)N([C@@H](C)CO)C[C@H]2C)cc1 | inactive | inactive | inactive |
| CO[C@@H]1CN(C)C(=O)c2cc(NC(=O)C3CCCCC3)ccc2OC[C@@H](C)N(C(=O)Nc2ccc(C(F)(F)F)cc2)C[C@H]1C | inactive | inactive | inactive |
| C[C@@H]1CN([C@@H](C)CO)C(=O)c2cc(C#CC3CC3)cnc2O[C@@H]1CN(C)S(=O)(=O)c1cccc(F)c1 | inactive | inactive | inactive |
| COc1cccc(S(=O)(=O)N(C)C[C@H]2Oc3ncc(-c4cccc(C(=O)N(C)C)c4)cc3C(=O)N([C@H](C)CO)C[C@@H]2C)c1 | inactive | inactive | inactive |
| C[C@H]1CN([C@@H](C)CO)C(=O)c2cccc(NC(=O)c3cnccn3)c2O[C@@H]1CN(C)Cc1ccc(C(=O)O)cc1 | inactive | inactive | inactive |
| COCCNC(=O)C[C@H]1CC[C@H]2[C@@H](COC[C@@H](O)CN2S(=O)(=O)c2ccccc2C)O1 | inactive | inactive | inactive |
| Cc1noc(C)c1S(=O)(=O)N(C)C[C@H]1Oc2ccc(NC(=O)C3CC3)cc2CC(=O)N([C@@H](C)CO)C[C@@H]1C | inactive | inactive | inactive |
| COc1ccc(NC(=O)Nc2ccc3c(c2)C(=O)N([C@@H](C)CO)C[C@@H](C)[C@@H](CN(C)C(=O)NC2CCCCC2)OCCCC[C@H](C)O3)cc1 | inactive | inactive | inactive |
| C[C@@H]1CN([C@H](C)CO)C(=O)c2cc(NC(=O)Cn3cnnn3)ccc2O[C@H]1CN(C)Cc1ccc(Oc2ccccc2)cc1 | inactive | inactive | inactive |
| C[C@H]1CCCCO[C@@H](CN(C)Cc2ccc3c(c2)OCO3)[C@@H](C)CN([C@@H](C)CO)C(=O)c2cc(NC(=O)Cc3ccccc3)ccc2O1 | inactive | inactive | inactive |
| C[C@@H]1CN([C@@H](C)CO)S(=O)(=O)c2ccc(C#CCN(C)C)cc2O[C@H]1CN(C)Cc1ccncc1 | inactive | inactive | inactive |
